Results published in PubChem BioAssay (NCATS).
Values joined by “and” are separate entries in the source; they are usually repeats but may differ in a detail not shown here. Equal entries are not always repeated. This list was built around the results that the source calls inconclusive (neither active nor inactive); the mix of calls is not that of the screen. A potency beside an inconclusive call is a rough fit, not a confirmed value. The source holds several records for some structures; these can differ, active in one and inactive in another. Active and inactive are the calls of the source. Calls follow the shape of the dose curve; as a rule, active = well fitted activation curve with a large enough effect; inconclusive = small, poorly fitted or top-dose-only effect; inactive = no such curve, though single readings can be large or run the other way.

The compounds below were run against Cellular tumor antigen p53 (Homo sapiens) (UniProt P04637) (assay: Primary qHTS for small molecule compounds that upregulate eGFP-tagged delta133p53alpha (in N-terminal) cells. (AID 2060322;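 also: cells pre-induced with doxycycline then dosed without doxycycline; nearly all actives have a fitted effect of over 75% in size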;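 as to activation: series mostly up to about 56 µM; 0% = DMSO vehicle and 100% = reference activator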)). Details: NCI-H358 eGFP-delta133p53alpha fluorescence, 24 h; activation: stronger effect = higher value.
Sequence of UniProt P04637 (P04637 whole entry, looked up): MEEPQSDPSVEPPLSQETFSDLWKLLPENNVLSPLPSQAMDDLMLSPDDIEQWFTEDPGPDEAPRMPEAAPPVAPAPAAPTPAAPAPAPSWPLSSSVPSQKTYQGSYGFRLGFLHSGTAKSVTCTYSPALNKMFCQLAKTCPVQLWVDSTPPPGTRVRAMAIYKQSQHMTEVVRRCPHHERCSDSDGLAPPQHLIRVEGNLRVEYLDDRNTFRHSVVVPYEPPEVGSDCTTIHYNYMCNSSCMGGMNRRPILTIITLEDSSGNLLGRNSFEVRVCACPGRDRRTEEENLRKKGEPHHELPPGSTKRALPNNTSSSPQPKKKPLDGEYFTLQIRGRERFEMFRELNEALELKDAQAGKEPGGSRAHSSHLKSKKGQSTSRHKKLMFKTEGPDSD
Summary of the method: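 NCI-H358 cells pre-induced 24 h with 10 ng/ml doxycycline for eGFP-delta133p53alpha, plated dox-free and exposed 24 h at 37C to titrated compounds. Fixed, Hoechst-stained; gated GFP peak intensity by laser scanning cytometry, normalized to DMSO (0%) and 57.5 uM 5-azacytidine (100%).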
Potency is read from the fitted curve at half-maximal effect; tags tell the direction and shape of the fitted curve.

| Structure (SMILES) | activation | Potency |
| --- | --- | --- |
| Cc1cc(C2CCCCC2)n(O)c(=O)c1 | inactive: 25.4% and inconclusive: 28.8% [activator] |  |
| c1ccc(Cn2c(-c3ccc(OCC(C4CCNCC4)n4c(-c5ccccc5)nc5ccccc54)cc3)nc3ccccc32)cc1 (stereo not given) |  | inconclusive: 37.9 µM [activator, single point] |
| CCN1CCC(n2cc(CNc3cc(Cl)c4ncc(C#N)c(Nc5ccc(F)c(Cl)c5)c4c3)nn2)CC1 |  | inconclusive: 43.2 µM [activator, single point] |
| O=C(NC[C@H](O)CO)c1ccncc1Nc1ccc(I)cc1F | inconclusive: 38% [activator] |  |
| O=C(Nc1ncc(-c2cc(C(F)F)nn2-c2c(Cl)cccc2Cl)s1)C1CC1 |  | inconclusive: 0.344 µM [activator, full curve] |
| C[C@H]1[C@@H](OC(=O)CCC(=O)O)O[C@@H]2O[C@@]3(C)CC[C@@H]4[C@H](C)CC[C@@H]1[C@@]24OO3 |  | inconclusive: 1.93 µM [activator, full curve] |
| CC(C)NC[C@@H](C(=O)N1CCN(c2ncnc3c2[C@H](C)C[C@H]3O)CC1)c1ccc(Cl)cc1 |  | active: 34.3 µM |
| Cc1cnc(NC(=O)Nc2cc(Br)c(C)cc2OC[C@@H]2CNCCO2)cn1 |  | inconclusive: 19.3 µM [activator, single point] |
| CN(C)c1ccccc1CN1CCCN(Cc2ccccc2N(C)C)C1c1ccncc1 |  | inconclusive: 0.0039 µM [activator, full curve, poor fit] |
| Cc1ccc(C(=O)N(CCCN)[C@@H](c2oc3cc(Cl)ccc3c(=O)c2Cc2ccccc2)C(C)C)cc1 | inconclusive: 169% [activator] |  |
| CC(C)Oc1cc(Nc2nc(N[C@@H](C)c3ccc(F)cn3)ncc2Cl)[nH]n1 |  | active: 24.3 µM |
| OC(c1ccc(-c2ccc(CN3CCN(Cc4ccncc4)CC3)cc2)c(F)c1)(C(F)(F)F)C(F)(F)F | inactive: -11% |  |
| O=C(O)CCC=CCC[C@@H]1[C@H](N2CCCCC2)[C@@H](O)C[C@@H]1OCc1ccc(-c2ccccc2)cc1 |  | inconclusive: 8.63 µM [activator, partial curve, poor fit] |
| COc1ccc(C2CC(c3ccccc3)=NN2c2ccc(S(N)(=O)=O)cc2)cc1 (stereo not given) |  | active: 21.7 µM |
| CN(C(=O)c1c(O)c2ccccc2n(C)c1=O)c1ccccc1 |  | inconclusive: 24.6 µM [activator, single point] |
| Nc1nnc(-c2cccc(Cl)c2Cl)c(N)n1 | inactive: 5.86% and inactive: 2.46% and inactive: -39.9% |  |
| CCCCCN(CCC12CC3CC(CC(C3)C1)C2)C(=O)NCCCc1ccncc1 |  | active: 23.9 µM |
| O=C(Nc1cccnc1)c1cc(-c2ccnc(F)c2)ccc1OCc1ccccc1 |  | inconclusive: 30.1 µM [activator, single point] |
| Cc1c(C)c2c(c(C)c1O)CCC(C)(COc1ccc(CC3SC(=O)NC3=O)cc1)O2 (stereo not given) |  | inconclusive: 24.3 µM [activator, partial curve, poor fit] |
| C[C@@H]1CN(c2c(F)c(N)c3c(=O)c(C(=O)O)cn(C4CC4)c3c2F)C[C@H](C)N1 | inconclusive: -18.4% [activator] |  |

| Structure (SMILES) | activation | Potency |
| --- | --- | --- |
| Cc1cc(Nc2cc(CN3CCOCC3)c3nc(C)c(Cc4ccc(Cl)cc4F)n3n2)n[nH]1 |  | inconclusive: 43.2 µM [activator, partial curve, poor fit] and active: 27.3 µM |
| CCCCCCNC(=O)n1cc(F)c(=O)[nH]c1=O | inactive: -29.9% and inactive: -7.59% |  |
| O=C(NCC1CN(c2ccc(N3CCOCC3=O)cc2)C(=O)O1)c1ccc(Cl)s1 (stereo not given) | inconclusive: 31.5% [activator] |  |
| CCn1cc(-c2ccnc3[nH]c(-c4cccc(CN(C)C)c4)cc23)c(-c2ccc(NC(=O)N(C)C)cc2)n1 |  | inconclusive: 30.6 µM [activator, partial curve, poor fit] and inconclusive: 43.2 µM [activator, single point] |
| COc1cc2nccc(Oc3ccc(NC(=O)NC4CC4)c(Cl)c3)c2cc1C(N)=O |  | inconclusive: 34.3 µM [activator, single point] and active: 26.9 µM |
| COc1ccc(C(=O)CC2(O)C(=O)Nc3c(Cl)ccc(Cl)c32)cc1 (stereo not given) |  | inconclusive: 2.73 µM [activator, full curve, poor fit] and inconclusive: 2.13 µM [activator, full curve] |
| CN(C)CCC=C1c2ccccc2C=Cc2ccccc21 |  | inconclusive: 13.7 µM [activator, single point] |
| Cc1cc(C(=O)Nc2cc(Nc3ccc4c(/C=C/c5ccccn5)n[nH]c4c3)ccc2F)n(C)n1 |  | inconclusive: 37.9 µM [activator, single point] |
| CCOc1cc2ncc(C#N)c(Nc3ccc(F)c(Cl)c3)c2cc1NC(=O)/C=C/CN(C)C |  | active: 13.5 µM |
| O=C(COCC(=O)N1CCN(C(c2ccccc2)c2ccccc2)CC1)Nc1ccc(Cl)cc1C(=O)O | inactive: -25.3% |  |
| COc1cc([C@@H](CC(=O)O)c2ccc(C)c(CN3C[C@@H](C)Oc4ccccc4S3(=O)=O)c2)cc2nnn(C)c12 |  | inconclusive: 12.2 µM [activator, full curve] |
| CC(=O)SCC(Cc1ccccc1)C(=O)NCC(=O)OCc1ccccc1 (stereo not given) | inactive: 16.6% |  |
| COc1cc(Nc2ncc(F)c(Nc3ccc4c(n3)N(COP(=O)(O)O)C(=O)C(C)(C)O4)n2)cc(OC)c1OC |  | inconclusive: 243 nM [activator, full curve, poor fit] and inconclusive: 3.01 µM [activator, full curve, poor fit] |
| CC(C)C[C@H](NC(=O)c1cc2ccccc2s1)C(=O)N1CCN(C(=O)[C@H](CO)NS(=O)(=O)c2ccc(Cl)cc2Cl)CC1 |  | inconclusive: 7.69 µM [activator, partial curve, poor fit] |
| O=C1NCCc2[nH]c(-c3ccncc3)cc21 |  | active: 7.69 µM |
| COc1c(Cl)cc2c([nH]c3cnccc32)c1NC(=O)c1cccnc1C |  | inconclusive: 2.43 µM [activator, full curve, poor fit] |
| COc1cc2c(Nc3ccc(Br)cc3F)ncnc2cc1OCC1CCN(C)CC1 |  | active: 21.3 µM |
| CCOC(=O)c1ccc(OC(=O)CCCCCN=C(N)N)cc1 |  | inconclusive: 17.4 µM [activator, partial curve, poor fit] |
| CN1CC[C@@H](c2c(O)cc(O)c3c(=O)cc(-c4ccccc4Cl)oc23)[C@@H](O)C1 |  | active: 0.217 µM |
| N#Cc1c(N(CC(=O)O)CC(=O)O)sc(C(=O)O)c1CC(=O)O |  | inconclusive: 38.5 µM [activator, single point] |
